# Experimental data taken from paper PMC4336329 (PLoS ONE, 2015).
# Screen size: about 310,000 compounds; about 2,200 (0.71%) showed an effect of 50% or more. Effects have a minus sign here. This is one part of the list.
# Target: human ether-à-go-go-related gene (hERG) potassium channel (human, UniProt Q12809)
# Test: primary screen, population patch clamp on CHO cells stably expressing hERG
# Chain of human ether-à-go-go-related gene (hERG) potassium channel (Q12809 whole entry, looked up): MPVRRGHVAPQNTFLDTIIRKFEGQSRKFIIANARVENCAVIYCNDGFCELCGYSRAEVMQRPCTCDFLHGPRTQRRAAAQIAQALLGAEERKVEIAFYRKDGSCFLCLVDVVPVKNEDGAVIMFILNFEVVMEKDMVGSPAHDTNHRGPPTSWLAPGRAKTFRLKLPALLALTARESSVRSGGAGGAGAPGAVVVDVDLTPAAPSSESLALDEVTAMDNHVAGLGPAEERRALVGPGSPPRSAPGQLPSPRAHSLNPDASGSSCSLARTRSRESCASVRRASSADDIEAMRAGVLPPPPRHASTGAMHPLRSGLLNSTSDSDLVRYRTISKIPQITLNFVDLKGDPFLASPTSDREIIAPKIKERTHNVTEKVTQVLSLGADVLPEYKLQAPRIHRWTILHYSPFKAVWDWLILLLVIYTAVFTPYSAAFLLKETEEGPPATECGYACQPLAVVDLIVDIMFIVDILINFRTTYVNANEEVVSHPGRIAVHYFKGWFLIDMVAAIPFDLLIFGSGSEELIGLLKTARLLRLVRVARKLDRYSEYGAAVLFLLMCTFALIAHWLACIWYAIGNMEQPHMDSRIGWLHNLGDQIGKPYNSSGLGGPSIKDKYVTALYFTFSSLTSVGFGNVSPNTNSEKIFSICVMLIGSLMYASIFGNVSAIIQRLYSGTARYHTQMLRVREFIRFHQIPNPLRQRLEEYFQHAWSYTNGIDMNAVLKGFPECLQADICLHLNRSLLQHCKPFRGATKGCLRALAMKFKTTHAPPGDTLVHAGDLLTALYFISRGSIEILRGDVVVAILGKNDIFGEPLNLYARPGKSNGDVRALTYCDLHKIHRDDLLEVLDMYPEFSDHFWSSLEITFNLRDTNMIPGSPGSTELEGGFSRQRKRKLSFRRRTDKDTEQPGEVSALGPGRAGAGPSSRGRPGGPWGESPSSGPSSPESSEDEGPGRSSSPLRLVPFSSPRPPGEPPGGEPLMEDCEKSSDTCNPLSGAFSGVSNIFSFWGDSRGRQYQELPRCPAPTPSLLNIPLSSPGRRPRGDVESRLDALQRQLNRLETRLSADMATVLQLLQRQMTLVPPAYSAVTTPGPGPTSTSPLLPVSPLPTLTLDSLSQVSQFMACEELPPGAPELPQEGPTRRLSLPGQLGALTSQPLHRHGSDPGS
row,Compound,"hERG current change (%, negative = inhibition) at 1uM [%]"
1,COc1ccc(C2c3[nH]c4ccccc4c3C[C@H]3C(=O)N(CCCO)CC(=O)N23)c(OC)c1 (stereo partly shown),17.3
2,CCOC(=O)c1cc(CC)sc1NC(=O)COC,7.4
3,CCOC(=O)C1CCCN(Cc2cc(Br)ccc2OC)C1 (stereo not shown),-0.882
4,CC1CCN(S(=O)(=O)c2cccc(C(=O)NC3CCCC3)c2)CC1,-20.5
5,COC(=O)C1=C(C(=O)OC)[C@@H]2N(C)c3ccccc3[C@@]23C[C@@H](CO)N(C(=O)c2cccs2)C3=N1,13.7
6,COc1ccc(S(=O)(=O)N2CCN(C(=O)NCc3ccccc3)CC2)cc1,-2.47
7,COc1ccccc1CNC(=O)CCCn1nc(C)n2ccnc2c1=O,13.1
8,O=C(/C=C/c1c(Cl)cccc1Cl)NCCc1ccccc1,9.36
9,CC1CCC[C@H](O)CCCCCc2cc(O)cc(O)c2C(=O)O1 (stereo partly shown),14.4
10,COc1ccc([N+](=O)[O-])cc1NC(=O)CSCc1ccccc1,13.5
11,O=C(O)c1ccccc1-c1ccccc1C(=O)Nc1cccc(-c2nc3ccccc3o2)c1,3.28
12,Cc1ccc2c(C(=O)CSc3ccccc3)c(C)[nH]c2c1,1.86
13,O=C(N/N=C/C=C/c1ccccc1)c1ccccc1Br,13.9
14,CCOc1ccc(NC(=O)CCc2nnc3ccc(N4CCC(C)CC4)nn23)cc1,6.13
15,Cc1ccc(CC(=O)Nc2nc3ccccc3[nH]2)cc1C,6.69
16,O=S(=O)(c1ccc(Cl)cc1)N1CCN=C1SCc1ccc(Cl)c(Cl)c1,7.69
17,CC(NC(=O)c1ccc(NC(=O)CC2SC(N3CCCC3)=NC2=O)cc1)c1ccc(F)cc1 (stereo not shown),16.3
18,COc1ccc(Cl)cc1C(=O)NCCS(=O)(=O)N1CCN(c2ccccc2F)CC1,5.03
19,O=C(CSc1nccc(=O)[nH]1)c1ccco1,-1.38
20,CCC1CCCCN1CCCNC(=O)c1ccc2c(c1)NC(=O)CN2C (stereo not shown),16
21,COc1ccccc1N(C(=O)CCl)c1cn(C(C)=O)c2ccccc12,5.94
22,COC(=O)C(O)(NC(=O)c1ccncc1)C(F)(F)F (stereo not shown),16.1

row,Compound,"hERG current change (%, negative = inhibition) at 1uM [%]"
1,FC(F)(F)COc1nc(N/N=C/c2cccnc2)nc(N2CCCCC2c2ccccn2)n1 (stereo not shown),-15.9
2,Cc1ccccc1C(=O)Oc1cc(N)n(S(C)(=O)=O)n1,12.3
3,O=C(CSc1ccc(Cl)cc1)N/N=C/c1cccnc1,-2.15
4,CCOC(=O)N1CCC(N2Cc3cccc(C(=O)Nc4cc(F)ccc4F)c3C2=O)CC1,-2.63
5,O=c1c2sc3nc(N4CCOCC4)c4c(c3c2ncn1CCc1ccccc1)CCCC4,-6.07
6,Cc1cc(NC(=O)CSc2nnc(C(C)N(C)C)n2-c2ccc(F)cc2)no1 (stereo not shown),23.3
7,COc1ccc(C)cc1NC(=O)c1ccccc1NS(=O)(=O)c1cccc2cccnc12,15.3
8,C/C(Cl)=C/CSc1nc2c(c(=O)[nH]c(=O)n2C)n1C(C)C,5.07
9,Cc1nnc(NC(=O)c2c(-c3ccccc3)noc2C)s1,10.9
10,COC(=O)c1c(C)[nH]c(C=Nc2ccc(OC)cc2)c1C,8.46
11,COc1ccc(OCC(=O)Nc2ccc(C)c(S(=O)(=O)N(C)C)c2)cc1,3.4
12,COc1ccc(CCNC(=O)COc2cc(O)c3c(c2)OC(C)(C)CC3=O)cc1OC,-3.34
13,CCN(CC)CCCNC(=O)CNC(=S)N(CCCN1CCOCC1)Cc1cccs1,6.65
14,COc1ccc2[nH]c3c(=O)n(CCCCC(=O)N4CCC(C(N)=O)CC4)c(=S)[nH]c3c2c1,6.66
15,O=C(/C=C/c1ccccc1)Nc1cc(C(=O)O)cc(C(=O)O)c1,-2.97
16,CC(=O)Nc1ccc(NC(=O)CSc2nc3[nH]ncc3c(=O)n2-c2ccccc2)cc1,30.3
17,CCOC(=O)c1cc(-c2ccccc2)sc1NC(=S)Nc1cccc(C)n1,11.4
18,CCCCn1c(N)c(N(CC)C(=O)c2cc(C)cc(C)c2)c(=O)[nH]c1=O,13.7
19,CCn1c(SCC(=O)Nc2nc3ccccc3s2)nc2c(c1=O)SC(C)C2 (stereo not shown),3.43
20,Cc1ccc(NS(=O)(=O)c2cc(C(=O)NCc3ccncc3)ccc2C)cc1,4.21
21,NC(=O)c1c(NC(=O)C(=O)NCCCN2CCOCC2)sc2c1CCCC2,6.61
22,CCOc1ccc(OCCSc2ccc(S(=O)(=O)N3CCN(C)CC3)cn2)cc1,5.27

row,Compound,"hERG current change (%, negative = inhibition) at 1uM [%]"
1,COc1ccccc1-c1cc(C(=O)N2CCN(c3ccccc3OC)CC2)no1,11.2
2,COc1ccc(S(=O)(=O)N2CCC(C(=O)N[C@@H](C)C(=O)NCc3ccc(F)cc3)CC2)cc1,18.8
3,Cc1ccc(-c2cc(Cc3ccncc3)c(=O)[nH]n2)cc1,-5.48
4,Cc1[nH]c2ccccc2c1C(=O)CSC(=S)N(C)C1CCCCC1,-0.132
5,O=C(Nc1c[nH]c(=O)[nH]c1=O)c1cccc([N+](=O)[O-])c1,11
6,O/N=C/c1cn(-c2ccc(Cl)cc2)nn1,7.48
7,Cc1ccc(C(=O)Nc2cccc(C(=O)O)c2)cc1,16.4
8,Cc1ccc2c(c1)cc1c(=O)n(CC(=O)N(C)c3ccccc3)nc(C)n12,13.7
9,CCn1c(SC(C)C(=O)O)nc2sc3c(c2c1=O)CCC3 (stereo not shown),17
10,CC(C)CCn1c(SCC(=O)NC2CC2)nc2cc(Cl)ccc2c1=O,17.4
11,COC(=O)c1ccc2c(c1)N(C)S(=O)(=O)c1cnc(SCC(=O)C(C)(C)C)nc1-2,14.1
12,COc1ccc(-n2nnnc2SCC(=O)Nc2ccccc2F)cc1,13.4
13,Cc1cc(Cl)c2ccccc2n1.O,9.1
14,CN(C(=O)COc1ncnc2sccc12)C1CCCCC1,7.82
15,COc1cccc(NC(=O)c2cccnn2)c1,15.4
16,CC(C)COc1nc2ccccc2nc1C(C#N)C(=O)NC1CCCCC1 (stereo not shown),12.9
17,CCOC(=O)Cc1csc(NC(=O)COc2cc(C)cc(C)c2)n1,12.9
18,CN(Cc1ccc2nsnc2c1)Cc1nc(Cc2cccc(F)c2)no1,11.2
19,COc1ccc(Cc2nnc(NC(=O)c3ccc(C)cc3)s2)cc1OC,12.5
20,Oc1c(N=NC(=S)Nc2ccccc2F)c2ccccc2n1Cc1ccccc1Cl,11.5
21,COc1cc(C(=O)O)nc2ccccc12,10.4
22,Cc1cc(C)cc(NC(=O)c2ccc(NC(=O)C3C4CC5OC(=O)C3C5C4)cc2)c1 (stereo not shown),3.07

row,Compound,"hERG current change (%, negative = inhibition) at 1uM [%]"
1,COc1ccc(CCN2CC(C(=O)N(C)C3CCOCC3)CCC2=O)cc1 (stereo not shown),12.1
2,CC(C)c1ccc(N(CC(=O)NCCSCc2ccco2)S(C)(=O)=O)cc1,7
3,COc1ccc(-c2csc3ncn(-c4ccc(C)cc4)c(=O)c23)cc1OC,17.6
4,Cc1sc2nc(CSc3ccc([N+](=O)[O-])cc3)[nH]c(=O)c2c1C,10.5
5,CN1C[C@@H]2C(c3ccccc3)C3(c4cccnc4)CC2(C3)[C@H]1c1ccccc1 (stereo partly shown),-3.6
6,CCNc1nc(NCC)nc(OCCNS(=O)(=O)c2cc(C)ccc2C)n1,7.43
7,Cc1cc(C)nc(NCCO)n1.Cl,7.36
8,CNS(=O)(=O)c1cc(S(=O)(=O)NC)c2cccc3c2c1NC3=O,11.1
9,CCCCn1c(N)c(N(CCOC)C(=O)c2cc3c(s2)CCCCC3)c(=O)[nH]c1=O,11.3
10,O=[N+]([O-])c1ccc(Cl)c(S(=O)(=O)NCC2CCCO2)c1 (stereo not shown),6.29
11,CSCCC(=O)N1CCCC(N2CCN(c3cccc(C(F)(F)F)c3)CC2)C1 (stereo not shown),-2.34
12,CCCCCCCCCCOC(=O)Cn1c(COc2cccc(C)c2)[n+](C)c2ccccc21.[Cl-],-43.9
13,CCc1ccc(NC(=O)C2=CC(c3ccc(OC)c(OC)c3)=NS(=O)(=O)N2C)cc1,4.48
14,CCCOc1ccc(C2NC(=O)NC2=O)cc1 (stereo not shown),12.5
15,COc1ccc(-c2cc(C(F)F)n3ncc(C(=O)N4CCN(C(=O)c5ccco5)CC4)c3n2)cc1,9.02
16,COc1cccc(/C=C2\SC(=S)N(CCC(=O)Nc3ccc(O)cc3)C2=O)c1,1.91
17,CN(CC1CCCO1)S(=O)(=O)c1ccc(C(=O)Nc2nc(-c3ccccn3)cs2)cc1 (stereo not shown),9.09
18,Cc1ccc2[nH]c(=O)c(CN(C(=O)c3cccs3)c3ccccc3)cc2c1,13.2
19,Nc1ncncc1-c1ccc([N+](=O)[O-])cc1,12
20,O=C(c1ccc(Cl)cc1)N1CCC(O)(CSc2ccc(Cl)cc2)CC1,8.67
21,COc1c(S(=O)(=O)N2CCN(C(=O)c3ccco3)CC2)ccc(Cl)c1Cl,7.64
22,CC(C)CN(CC(C)C)c1nnc(N)s1,10.2
